Measured values: patent US20200054633A1 (priority 2017, published 2020)
Like-named read-outs stand apart in the source and are kept apart here.

What was measured:
[1] = OST placebo, N=74
Text: Analysis set for safety: Safety Set included all subjects who received at least 1 dose of study drug.

[2] = system: acute uncomplicated seasonal influenza A; test: Clinical study: time to resolution of the 7 primary influenza symptoms (Flu-iiQ); details: for Hazard ratio Estimate, time to resolution of 7 primary influenza symptoms / Time to Resolution of Influenza Symptoms Acceleration factor (95% CI): versus placebo, Full Analysis Set; for Time to Resolution of Influenza Symptoms Acceleration factor (95% CI): accelerated failure time model

O=C(O)[C@H]1C2CCC(CC2)[C@@H]1Nc1nc(-c2c[nH]c3ncc(F)cc23)ncc1F [Compound (1), Pimodivir]
TEAE: Influenza like illness ([1]; 300 mg): 0 n (%) | TEAE: Influenza like illness ([1]; 600 mg): 0 n (%) | reduction in time to resolution of influenza symptoms versus placebo ([2]; Compound (1) 600 mg bid, not statistically significant): 13% | Hazard ratio Estimate, time to resolution of 7 primary influenza symptoms ([2]; Cmpd (1) 300 mg + OST placebo): 0.84 | Hazard ratio Estimate, time to resolution of 7 primary influenza symptoms ([2]; Cmpd (1) 600 mg + OST placebo): 1.17 | Time to Resolution of Influenza Symptoms Acceleration factor (95% CI) ([2]; Compound (1) 300 mg bid): 1.07 (0.76; 1.52) | Time to Resolution of Influenza Symptoms Acceleration factor (95% CI) ([2]; Compound (1) 300 mg bid, listed as Cmpd (1)): 1.07 | Time to Resolution of Influenza Symptoms Acceleration factor (95% CI) ([2]; Compound (1) 600 mg bid): 0.87 (0.62; 1.23) | Time to Resolution of Influenza Symptoms Acceleration factor (95% CI) ([2]; Compound (1) 600 mg bid, listed as Cmpd (1)): 0.87
